Reference: patent US20190359653A1, “SELECTIVE PEPTIDE INHIBITORS OF FRIZZLED” (Genentech, Inc., priority 2016, published 2019)

Test system: hFZD7 CRD (H84A, Y87A, F138A, F140A)
Experiment: FSEC with hFZD7 CRD mutants
Format: binding, human
Settings: FIG. 40
Excerpt: […]. […] […].

LPSDDLEFWCHVMY [Fz7-21]
binding to mutant vs wild-type hFZD7 CRD: reduced the binding
